Data reported in PMC11213948 (2024).
Results are given in words; binding and its absence hold for the method and conditions named. For some assays here: Binding seen in cells or lysates may run through a third protein. Some binding calls cover weakened binding; strength is not graded here. For some assays here: Where a sequence is shown, tags or fusion partners need not be part of it.

Protein sequences, listed by entry. Tags and fused reporters are not part of them.
UniProt O14893: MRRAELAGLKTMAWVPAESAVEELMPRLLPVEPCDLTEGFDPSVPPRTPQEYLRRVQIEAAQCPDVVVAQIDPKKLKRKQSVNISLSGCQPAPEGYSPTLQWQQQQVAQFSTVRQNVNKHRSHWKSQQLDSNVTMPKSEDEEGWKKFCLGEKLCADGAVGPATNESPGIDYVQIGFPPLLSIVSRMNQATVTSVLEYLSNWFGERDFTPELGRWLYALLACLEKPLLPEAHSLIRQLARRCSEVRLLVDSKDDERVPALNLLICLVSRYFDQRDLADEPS
UniProt P57678: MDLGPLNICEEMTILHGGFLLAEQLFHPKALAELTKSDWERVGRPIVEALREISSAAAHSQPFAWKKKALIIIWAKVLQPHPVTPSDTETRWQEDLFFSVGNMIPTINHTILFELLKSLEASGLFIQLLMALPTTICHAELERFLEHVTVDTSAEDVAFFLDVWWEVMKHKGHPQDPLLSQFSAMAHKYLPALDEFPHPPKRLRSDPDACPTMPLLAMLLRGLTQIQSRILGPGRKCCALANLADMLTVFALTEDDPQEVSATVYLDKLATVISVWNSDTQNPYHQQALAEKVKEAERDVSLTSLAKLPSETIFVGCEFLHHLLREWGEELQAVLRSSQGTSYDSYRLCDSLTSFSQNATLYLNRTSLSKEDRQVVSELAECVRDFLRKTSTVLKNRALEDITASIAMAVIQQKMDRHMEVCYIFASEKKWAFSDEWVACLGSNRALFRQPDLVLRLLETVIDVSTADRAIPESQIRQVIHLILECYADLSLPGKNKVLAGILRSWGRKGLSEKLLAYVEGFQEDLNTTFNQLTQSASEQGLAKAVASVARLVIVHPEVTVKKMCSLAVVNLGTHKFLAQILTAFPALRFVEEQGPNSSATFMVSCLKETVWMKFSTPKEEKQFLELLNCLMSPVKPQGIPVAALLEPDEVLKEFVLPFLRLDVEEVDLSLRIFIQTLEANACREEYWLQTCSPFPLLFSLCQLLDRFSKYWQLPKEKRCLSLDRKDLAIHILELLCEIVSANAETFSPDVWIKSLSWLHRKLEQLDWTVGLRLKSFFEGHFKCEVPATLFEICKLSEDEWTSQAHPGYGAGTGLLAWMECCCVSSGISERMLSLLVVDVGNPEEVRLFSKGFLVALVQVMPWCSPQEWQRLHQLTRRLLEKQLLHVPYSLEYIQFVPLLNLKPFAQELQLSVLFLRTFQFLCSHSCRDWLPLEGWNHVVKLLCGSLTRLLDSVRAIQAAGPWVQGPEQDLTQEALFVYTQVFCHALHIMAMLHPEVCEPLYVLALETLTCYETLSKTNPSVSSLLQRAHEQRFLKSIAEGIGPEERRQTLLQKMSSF
UniProt Q16637: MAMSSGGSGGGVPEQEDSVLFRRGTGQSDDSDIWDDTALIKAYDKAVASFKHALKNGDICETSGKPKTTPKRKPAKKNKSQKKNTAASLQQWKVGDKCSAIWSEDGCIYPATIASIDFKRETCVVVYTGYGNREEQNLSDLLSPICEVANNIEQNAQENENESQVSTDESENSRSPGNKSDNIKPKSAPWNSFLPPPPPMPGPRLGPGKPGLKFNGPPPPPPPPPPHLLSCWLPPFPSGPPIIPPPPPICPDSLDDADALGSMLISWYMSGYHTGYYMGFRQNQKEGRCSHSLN

Columns and labels:
[1] = biological target: Xpress-His G5_(1287–1508) (UniProt Q8TEQ6); assay: pull-down; Ni-NTA agarose pull-down of Xpress-His proteins from lysates of HEK293 cells co-transfected with G5(1-1508)-FLAG; 10 mM Tris-HCl pH 7.5, 20 mM NaCl, 10 mM KCl, 5 mM MgCl2, 4 °C, 1 h; western blot with anti-FLAG and anti-Xpress
[2] = biological target: Xpress-His G5_(1–1287) (UniProt Q8TEQ6); assay: as above
[3] = biological target: Xpress-His G5_(1–1508)AxE (UniProt Q8TEQ6); assay: as above
[4] = biological target: Xpress-His G5_(1–739) (UniProt Q8TEQ6); assay: as above
[5] = biological target: Xpress-His G5_(845–1287) (UniProt Q8TEQ6); assay: as above
[6] = biological target: Xpress-His G5_(845–1508) (UniProt Q8TEQ6); assay: as above
[7] = biological target: TAP-tagged G5_(1287–1508) (UniProt Q8TEQ6); assay: co-IP; TAP purification of TAP-tagged Gemin5 regions from transfected HEK293 cells, western blot with anti-SMN, anti-Gemin2 and anti-Gemin4; three independent experiments
[8] = biological target: TAP-tagged G5_(1–1287) (UniProt Q8TEQ6); assay: as above
[9] = biological target: TAP-tagged G5_(1–1508) (UniProt Q8TEQ6); assay: as above
[10] = biological target: TAP-tagged G5_(1–739) (UniProt Q8TEQ6); assay: as above
[11] = biological target: TAP-tagged G5_(845–1287) (UniProt Q8TEQ6); assay: as above
[12] = biological target: TAP-tagged G5_(845–1508) (UniProt Q8TEQ6); assay: as above
[13] = biological target: TAP-tagged G5_(845–1508)AxE (UniProt Q8TEQ6); assay: as above
[14] = biological target: Xpress-His G5_(1–739) (UniProt Q8TEQ6); assay: SDS-PAGE and western blot of oligomers resistant to DTT; lysates of HEK293 cells expressing Xpress-His constructs mixed with SDS-loading buffer with or without 5 mM additional DTT, 3 min 92 °C; western blot with anti-Xpress
[15] = biological target: Xpress-His G5_(1–1287) (UniProt Q8TEQ6); assay: as above
[16] = biological target: Xpress-His G5_(1–1287)AxE (UniProt Q8TEQ6); assay: as above
[17] = biological target: Xpress-His G5_(1–1508)AxE (UniProt Q8TEQ6); assay: as above
[18] = biological target: Xpress-His G5_(845–1287) (UniProt Q8TEQ6); assay: as above
[19] = biological target: Xpress-His G5_(845–1287)AxE (UniProt Q8TEQ6); assay: as above
[20] = biological target: Xpress-His G5_(845–1508)AxE (UniProt Q8TEQ6); assay: as above
[21] = biological target: T1, Xpress-His G5_(845–1508), Q8TEQ6; assay: as above; settings: remark: other sources report otherwise
T1 chain: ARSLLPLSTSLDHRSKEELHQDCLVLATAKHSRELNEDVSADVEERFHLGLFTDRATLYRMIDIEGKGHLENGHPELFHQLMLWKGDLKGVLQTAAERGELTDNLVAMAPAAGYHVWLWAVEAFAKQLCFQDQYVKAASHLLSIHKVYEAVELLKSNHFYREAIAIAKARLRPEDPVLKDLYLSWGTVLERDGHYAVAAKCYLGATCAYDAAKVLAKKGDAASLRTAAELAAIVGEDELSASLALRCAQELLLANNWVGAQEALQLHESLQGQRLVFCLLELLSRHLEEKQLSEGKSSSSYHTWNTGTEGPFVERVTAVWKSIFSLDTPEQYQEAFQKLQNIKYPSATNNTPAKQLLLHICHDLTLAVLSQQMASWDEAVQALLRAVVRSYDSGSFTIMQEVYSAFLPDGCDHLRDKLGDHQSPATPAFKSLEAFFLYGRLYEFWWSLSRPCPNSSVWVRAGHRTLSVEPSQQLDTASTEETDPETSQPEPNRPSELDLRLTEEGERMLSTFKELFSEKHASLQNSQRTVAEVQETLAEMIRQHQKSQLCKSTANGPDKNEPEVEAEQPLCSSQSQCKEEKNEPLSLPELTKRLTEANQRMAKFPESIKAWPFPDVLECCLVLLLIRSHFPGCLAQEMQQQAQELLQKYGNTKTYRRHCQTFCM

G5_(1–1508)-FLAG (from UniProt Q8TEQ6 1-1508)
binding [1]: no binding
binding [2]: binds
binding [3]: binds
binding [4]: no binding
binding [5]: binds
binding [6]: binds

Gemin2 (from UniProt O14893 1-280)
binding [7]: no binding
binding [8]: binds
binding [9]: binds
binding [10]: no binding
binding [11]: binds
binding [12]: binds
binding [13]: no binding

Gemin4 (from UniProt P57678 1-1058)
binding [7]: no binding
binding [8]: binds
binding [9]: binds
binding [10]: no binding
binding [11]: binds
binding [12]: binds
binding [13]: no binding

SMN (from UniProt Q16637 1-294)
binding [7]: no binding
binding [8]: binds
binding [9]: binds
binding [10]: no binding
binding [11]: binds
binding [12]: binds
binding [13]: no binding

Xpress-His G5_(1–739) (from UniProt Q8TEQ6 1-739) (domain or fragment)
binding [14]: no binding

Xpress-His G5_(1–1287) (from UniProt Q8TEQ6 1-1287) (domain or fragment)
binding [15]: binds

Xpress-His G5_(1–1287)AxE (from UniProt Q8TEQ6 1-1287) (domain or fragment)
binding [16]: no binding

Xpress-His G5_(1–1508)AxE (from UniProt Q8TEQ6 1-1508)
binding [17]: binds

Xpress-His G5_(845–1287) (from UniProt Q8TEQ6 845-1287) (domain or fragment)
binding [18]: binds

Xpress-His G5_(845–1287)AxE (from UniProt Q8TEQ6 845-1287) (domain or fragment)
binding [19]: no binding

Xpress-His G5_(845–1508)AxE (from UniProt Q8TEQ6 845-1508) (domain or fragment)
binding [20]: no binding

B1: Xpress-His G5_(845–1508), Q8TEQ6 845-1508 (domain or fragment)
chain: ARSLLPLSTSLDHRSKEELHQDCLVLATAKHSRELNEDVSADVEERFHLGLFTDRATLYRMIDIEGKGHLENGHPELFHQLMLWKGDLKGVLQTAAERGELTDNLVAMAPAAGYHVWLWAVEAFAKQLCFQDQYVKAASHLLSIHKVYEAVELLKSNHFYREAIAIAKARLRPEDPVLKDLYLSWGTVLERDGHYAVAAKCYLGATCAYDAAKVLAKKGDAASLRTAAELAAIVGEDELSASLALRCAQELLLANNWVGAQEALQLHESLQGQRLVFCLLELLSRHLEEKQLSEGKSSSSYHTWNTGTEGPFVERVTAVWKSIFSLDTPEQYQEAFQKLQNIKYPSATNNTPAKQLLLHICHDLTLAVLSQQMASWDEAVQALLRAVVRSYDSGSFTIMQEVYSAFLPDGCDHLRDKLGDHQSPATPAFKSLEAFFLYGRLYEFWWSLSRPCPNSSVWVRAGHRTLSVEPSQQLDTASTEETDPETSQPEPNRPSELDLRLTEEGERMLSTFKELFSEKHASLQNSQRTVAEVQETLAEMIRQHQKSQLCKSTANGPDKNEPEVEAEQPLCSSQSQCKEEKNEPLSLPELTKRLTEANQRMAKFPESIKAWPFPDVLECCLVLLLIRSHFPGCLAQEMQQQAQELLQKYGNTKTYRRHCQTFCM
binding [21]: binds
